Reference: PubChem BioAssay AID488969 (Vanderbilt High Throughput Screening Facility, 2010)
In all, about 110,000 compounds were measured (“z-score”: median about -0.1, highest 2% from about 2 on). The list shows a part of the results.

molecular target: Metabotropic glutamate receptor 8 (Rattus norvegicus) (UniProt P70579); assay: mGluR8 Gi/Go-coupled signaling modulation – cell-based, rat, thallium flux, HTS, primary screen (AID 488969); conditions: HEK293 rat mGluR8, GIRK (G protein-gated inwardly rectifying potassium channel) thallium flux, FluoZin2; at 10 µM; stronger effect = higher value; submaximal glutamate (EC20) added with thallium
Chain of UniProt P70579 (P70579 whole entry, looked up): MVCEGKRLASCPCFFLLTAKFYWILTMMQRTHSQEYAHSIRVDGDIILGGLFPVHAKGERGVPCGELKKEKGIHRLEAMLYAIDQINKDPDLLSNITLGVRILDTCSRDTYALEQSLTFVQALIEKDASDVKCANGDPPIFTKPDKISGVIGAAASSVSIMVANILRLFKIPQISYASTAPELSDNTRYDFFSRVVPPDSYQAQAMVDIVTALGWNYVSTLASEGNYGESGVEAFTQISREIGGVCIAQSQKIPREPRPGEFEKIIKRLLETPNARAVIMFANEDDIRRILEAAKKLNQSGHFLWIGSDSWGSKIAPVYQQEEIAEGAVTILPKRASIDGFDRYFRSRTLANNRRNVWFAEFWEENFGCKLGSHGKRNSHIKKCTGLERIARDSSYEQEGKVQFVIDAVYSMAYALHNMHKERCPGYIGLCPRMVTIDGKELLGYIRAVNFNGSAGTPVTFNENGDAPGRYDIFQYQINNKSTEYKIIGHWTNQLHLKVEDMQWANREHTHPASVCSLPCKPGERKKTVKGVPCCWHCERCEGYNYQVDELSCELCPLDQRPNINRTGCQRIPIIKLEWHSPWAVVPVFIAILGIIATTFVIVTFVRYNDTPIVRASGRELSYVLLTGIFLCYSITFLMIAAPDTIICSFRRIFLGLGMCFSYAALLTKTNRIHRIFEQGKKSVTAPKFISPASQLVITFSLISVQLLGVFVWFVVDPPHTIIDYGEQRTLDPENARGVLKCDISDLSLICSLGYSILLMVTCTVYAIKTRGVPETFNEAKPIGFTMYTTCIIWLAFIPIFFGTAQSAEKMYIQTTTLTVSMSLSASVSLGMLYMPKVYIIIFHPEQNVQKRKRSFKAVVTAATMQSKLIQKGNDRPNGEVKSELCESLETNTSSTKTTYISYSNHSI

First: COc1ccc(CN(Cc2cc3cc(OC)c(OC)cc3[nH]c2=O)C(=O)NC2CCCCC2)cc1
Second: Cc1cccc2cc(CN(Cc3ccc(F)cc3)C(=O)N3CCOCC3)c(=O)[nH]c12
The z-score of the first is higher: -0.423 for the first, -0.501 for the second.

Compared with CCOCC(=O)N1CCc2ccccc21, COC(=O)/C(=N/Nc1ccccc1C)N1CCCc2ccccc21 is lower in z-score: -0.157 for the first, -0.158 for the second.

Going from O=C(Nc1ccc(-c2nnco2)cc1)c1ccccc1 to Cc1ccc(Nc2nc(-c3sc(NC(=O)c4ccccc4)nc3C)cs2)cc1, the z-score rises from -0.324 to -0.0244.

First: O=c1[nH]c(NC2CCCCC2)nnc1Cc1ccccc1
Second: O=C(NC1CCCCC1)c1sc(N2CCOCC2)nc1-c1ccccc1
The z-score of the first is lower: -0.656 for the first, 0.0133 for the second.

Compared with COCC(=O)Nc1cc(OC)cc(OC)c1, CCn1c(SCC(=O)c2cc(OC)ccc2OC)nnc1-c1ccncc1 is lower in z-score: -0.0538 for the first, -0.497 for the second.

Compared with Cc1cc(NC(=O)CSc2nnc(-c3cccnc3)n2N)no1, Cc1nnc(SCc2ccccc2)n(N)c1=O is higher in z-score: -0.404 for the first, 0.09 for the second.

First: CCC(C)NC(=S)N1CCN(C(c2ccccc2)c2ccccc2)CC1 (stereo not given)
Second: O=C(Nc1cccc(C(=O)N2CCN(Cc3ccccc3)CC2)c1)c1ccccc1
The z-score of the first is lower: -0.112 for the first, -0.0123 for the second.

Compared with Cc1ncsc1CCOC(=O)C12CC3CC(CC(C3)C1)C2, COC(=O)c1oc2c(c1C)C1(CCC2)SCCS1 is higher in z-score: -0.15 for the first, 0.0947 for the second.

Going from CCOC(=O)c1c(NC(=O)CCC(=O)N2CCOCC2)sc2c1CC(C)(C)OC2 to CCCC(=O)Nc1cc(Cl)ccc1N1CCN(C(=O)CC)CC1, the z-score falls from -0.0738 to -1.7.

First: CN(c1cccc(Cl)c1)S(=O)(=O)c1cccc(C(=O)Nc2nc3ccccc3[nH]2)c1
Second: CCN(CC)c1ccc(NC(=O)c2cccc(C)c2)cc1S(=O)(=O)Nc1ccccc1OC
The z-score of the first is lower: -0.0848 for the first, -0.0661 for the second.

Compared with COc1ccccc1N1CCN(S(=O)(=O)c2ccc3c4c(cccc24)C(=O)N3C)CC1, Cc1ccc(C(=O)N2CCN(c3ncnc4c3cnn4-c3ccccc3)CC2)cc1 is higher in z-score: -0.292 for the first, -0.196 for the second.

Compared with CCn1nnc(NC(=O)c2cccnc2Cl)n1, Cc1ccc(-n2nc(C)c(NC(=O)CCl)c2C)cc1 is higher in z-score: -0.48 for the first, 0.146 for the second.

Compared with Cc1ccccc1-c1nsc(SCC(=O)Nc2ccc3c(c2)OCO3)n1, Cc1nc(NC(=O)CSc2ccc(-c3nc4ccccc4[nH]3)cn2)sc1C is higher in z-score: -0.254 for the first, -0.0534 for the second.

Going from C/C=C(\C)C(=O)OC1c2c(ccc3ccc(=O)oc23)OC(C)(C)C1OC(C)=O (stereo not given) to CCOC(=O)CN1CC23C=CC(O2)C(C(=O)Nc2ccc(C(C)=O)cc2)C3C1=O (stereo not given), the z-score rises from -0.329 to -0.322.

First: Nc1ccc(-c2nc3ccccc3[nH]2)cc1
Second: COc1ccc(-c2cc(-c3ccccc3)n3ncnc3n2)cc1
The z-score of the first is higher: 1.29 for the first, -0.512 for the second.

First: Cc1ccc(NC(=O)/C(C#N)=C/c2ccc(Sc3nc(C)cc(C)n3)o2)cc1
Second: CCN(CC)c1ccc(/C=C(\C#N)C(=O)NCc2ccco2)cc1
The z-score of the first is higher: -0.1 for the first, -0.684 for the second.

Going from COc1ccc(-c2nnc(SCc3nc4ccccc4s3)n2C(C)C)cc1 to CCn1c(CSc2nc3ccccc3s2)nnc1SCC(=O)c1ccc(Cl)cc1, the z-score rises from -1.13 to -0.409.

Compared with CCCn1c(N2CCN(Cc3cccc(C)c3)CC2)nc2c1c(=O)[nH]c(=O)n2C, CC1CCN(c2nc3c(c(=O)n(C)c(=O)n3C)n2CCSc2nc3ccccc3o2)CC1 is lower in z-score: -0.0878 for the first, -0.456 for the second.

First: O=c1cc(CSc2nnc(-c3ccccc3)o2)c2ccccc2[nH]1
Second: c1ccc(-c2cc3ccccc3nc2N2CCCC2)cc1
The z-score of the first is higher: 0.487 for the first, -0.0621 for the second.

Going from Cc1ccc(C(C)C)cc1OCC(=O)N/N=C/c1ccc2c(c1)OCCO2 to COCC(C)n1c(SCC(=O)N2CCc3ccccc3C2)nc2ccccc2c1=O (stereo not given), the z-score falls from -0.0651 to -1.25.

Going from CN(C)c1ccc(C(c2nnnn2C(C)(C)C)N2CCN(C(=O)c3ccco3)CC2)cc1 (stereo not given) to CC1(C)Cc2noc(N)c2C(C)(C)N1OC(=O)c1ccco1, the z-score falls from 0.29 to 0.14.

Going from OC(CNCc1ccco1)COc1ccccc1 (stereo not given) to O=C(COC(=O)c1oc2ccccc2c1COc1ccccc1)NCCN1C(=O)CSC1=O, the z-score falls from 0.624 to -0.387.

Compared with CCN(CC)C(=O)CSc1nnc(-c2ccco2)o1, S=c1[nH]nc(-c2ccco2)n1/N=C/c1ccccc1Cl is higher in z-score: 0.153 for the first, 1.07 for the second.

First: CSc1ccccc1C(=O)NCCSC(C)(C)C
Second: CSC(=NS(=O)(=O)c1ccc(C)cc1)SC
The z-score of the first is higher: 0.626 for the first, -0.53 for the second.

First: O=C(NCCCN1CCCC1=O)c1ccc2c(=O)n(Cc3ccco3)c(=S)[nH]c2c1
Second: Cc1nc(SCC(=O)N2CC(=O)Nc3ccccc32)c2c(C)c(C)sc2n1
The z-score of the first is higher: -0.215 for the first, -0.286 for the second.

First: Clc1cccc(Cl)c1COc1ccncc1
Second: COc1ccccc1-c1nc(-c2ccncc2)no1
The z-score of the first is lower: -0.502 for the first, 0.393 for the second.

First: Cc1cccc(NS(=O)(=O)c2ccc(Br)s2)n1
Second: CN(C(=O)c1cc(-n2cnnc2)ccc1Cl)c1ccccc1
The z-score of the first is lower: -0.0972 for the first, -0.0695 for the second.

Molecule COc1ccc(C(C#N)N2N=C(C)CC2(C)C)cc1 (stereo not given) has a z-score of 0.173.
